Measurements: PMC4336329 (PLoS ONE, 2015)
The campaign covered roughly 310,000 compounds. About 14,000 (4.5%) showed an effect of 50% or more. The effect is printed as a negative number. The list shows a part of the results.

molecular target: human ether-à-go-go-related gene (hERG) potassium channel (human, UniProt Q12809); test: primary screen, population patch clamp on CHO cells stably expressing hERG
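Also: peak tail current of the secondary pulse compared with the same well before compound.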

Sequence of human ether-à-go-go-related gene (hERG) potassium channel (Q12809 whole entry, looked up): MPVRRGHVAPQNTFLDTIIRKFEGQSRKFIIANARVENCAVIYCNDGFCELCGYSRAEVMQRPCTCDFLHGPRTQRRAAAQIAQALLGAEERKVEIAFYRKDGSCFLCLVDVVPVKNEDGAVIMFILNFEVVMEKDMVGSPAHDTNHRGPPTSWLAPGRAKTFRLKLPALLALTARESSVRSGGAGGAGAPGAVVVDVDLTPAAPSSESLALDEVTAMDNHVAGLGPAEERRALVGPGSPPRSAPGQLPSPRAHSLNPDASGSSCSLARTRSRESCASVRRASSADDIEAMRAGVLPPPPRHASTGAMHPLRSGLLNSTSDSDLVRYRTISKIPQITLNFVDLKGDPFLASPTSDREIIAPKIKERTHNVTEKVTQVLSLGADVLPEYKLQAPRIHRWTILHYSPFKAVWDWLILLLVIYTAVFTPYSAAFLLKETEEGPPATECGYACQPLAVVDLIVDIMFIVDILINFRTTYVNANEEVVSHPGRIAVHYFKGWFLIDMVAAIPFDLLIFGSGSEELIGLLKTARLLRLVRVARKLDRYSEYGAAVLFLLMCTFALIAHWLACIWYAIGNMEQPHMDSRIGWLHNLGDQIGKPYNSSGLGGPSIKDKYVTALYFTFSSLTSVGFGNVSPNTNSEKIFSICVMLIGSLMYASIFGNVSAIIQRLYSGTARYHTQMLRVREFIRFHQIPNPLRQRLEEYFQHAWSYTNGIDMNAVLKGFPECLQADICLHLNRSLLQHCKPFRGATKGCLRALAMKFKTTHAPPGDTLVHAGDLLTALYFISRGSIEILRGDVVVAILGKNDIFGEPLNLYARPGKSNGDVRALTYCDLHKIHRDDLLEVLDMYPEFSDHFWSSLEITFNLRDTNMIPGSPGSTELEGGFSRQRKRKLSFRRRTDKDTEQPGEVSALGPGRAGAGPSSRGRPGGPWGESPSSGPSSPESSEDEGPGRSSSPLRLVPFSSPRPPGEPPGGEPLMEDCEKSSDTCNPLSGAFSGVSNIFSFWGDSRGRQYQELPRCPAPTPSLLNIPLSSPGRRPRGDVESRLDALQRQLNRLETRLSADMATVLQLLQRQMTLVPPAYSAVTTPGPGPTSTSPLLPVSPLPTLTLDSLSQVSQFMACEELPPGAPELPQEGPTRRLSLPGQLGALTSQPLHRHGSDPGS

| Compound | hERG current change (%, negative = inhibition) at 10uM [%] |
| --- | --- |
| C/C(=N/O)c1ccc2ccc3ccccc3c2c1 | -2.53 |
| COCCNC(=O)Cn1c(=O)n(CCCCCC(=O)Nc2ccccc2)c(=O)c2sccc21 | -27.4 |
| O=C(NCCCN1CCOCC1)c1ccc(N2CCCC2)c([N+](=O)[O-])c1 | -16.8 |
| CC(C(=O)NC(C)(C)C)N(C(=O)CS(=O)CC(=O)Nc1ccc(F)cc1)c1ccccc1F (stereo not drawn) | 19 |
| CCc1ccc[n+](-c2nc([O-])sc2C=O)c1 | 10.1 |
| O=C(O)CCCC(=O)N(Cc1ccccc1)Cc1ccccc1 | 30.4 |
| Cc1ccc(NC(=O)c2oc3ccc(S(=O)(=O)N4CCOCC4)cc3c2C)c(C)c1 | 5.03 |
| O=C(COc1ccc(Cl)cc1)Nc1nnc(C2=COCCO2)o1 | 11.3 |
| C/C(CC(=O)Nc1ccc(N(C)C)cc1)=N\NC(=O)c1ccc(Cl)cc1Cl | -5.01 |
| COc1ccc(NC(=O)c2cc(-c3ccc(OC)c(OC)c3)nc3ccccc23)c(OC)c1 | 4.92 |
| CCCC(OC(=O)CN1C(=O)COc2ccccc21)C(=O)NC1CCCC1 (stereo not drawn) | 2.25 |
| CCc1ccc(NC(=O)CN(C(=O)N2CCN(CC)CC2)S(=O)(=O)c2ccc(C)cc2)cc1 | 9.35 |
| COc1ccccc1C(=O)NCC(=O)NC(C)CCc1ccccc1 (stereo not drawn) | 1.99 |
| COc1ccc(-c2csc3nc(C)n(-n4cccc4)c(=O)c23)cc1 | 8.94 |
| CSc1ncccc1C(=O)OCC(=O)Nc1ccc2c(c1)OCO2 | 26.1 |
| Cc1cccc(NC(=O)c2cc(S(=O)(=O)N3CCc4ccccc43)cn2C)c1 | 15.9 |
| CN(C)CCCNC(=O)C(=O)Nc1ccc2c(c1)N(S(=O)(=O)c1cccs1)CCC2 | -21.4 |
| CCN(CC)S(=O)(=O)c1ccc(NC(=O)CCNC(=O)c2ccccc2)cc1 | 1.57 |
| COc1ccc(NC(=O)CN(C)C(=O)CSc2ccc3c(c2)OCCO3)cc1 | 0.83 |
| CCOC(=O)N1CCc2c(sc3c2c(=O)n(-c2ccc(CC)cc2)c(=O)n3CC(=O)NCC2CCCO2)C1 (stereo not drawn) | 2.84 |
| Cc1ccc(NC(=O)NCC2CCN(Cc3cccc(Cl)c3)CC2)cc1Cl | -19.7 |
| O=C(CCl)Nc1cccc(-c2cnc3ccccc3n2)c1 | -26.4 |
| O=C1NNC(c2ccccc2)=N/C1=C\c1ccco1 | 1.66 |
| O=C(CCc1nc2ccccc2c(=O)[nH]1)NNC(=O)COc1cccc(F)c1 | -1.88 |
| CCOC(=O)/C=C1\SCC(=O)N1CC(=O)NC(c1ccccc1)c1ccccc1 | -52.2 |
| C#CCOCCOCCOCCNc1nc(N2CCN(C(=O)CCCCCCCCCCNC(=O)[C@@H](CCC(=O)O)n3cc(CCCCCN)nn3)CC2)nc(N2CCN(C(=O)CCCCCCCCCCNC(=O)[C@H](CO)n3cc(CCCSC)nn3)CC2)n1 | 11.9 |
| CCOC(=O)c1c(C)nc2sc3c(=O)n(-c4ccc(OC)cc4)nnc3c2c1-c1ccc(OC)cc1 | 5.32 |

| Compound | hERG current change (%, negative = inhibition) at 10uM [%] |
| --- | --- |
| O=c1c2[nH]c3cccc(Cl)c3c2ncn1CC1CCCO1 (stereo not drawn) | -9.51 |
| Cc1nc2ccccc2c(=O)n1/N=C/c1cccs1 | -8.04 |
| Cc1cc2c(cc1C)/C(=C\C(N)=O)NC(C)(C)C2 | -5.01 |
| COc1ccc2c(c1)C(=NO)c1cc(OC)ccc1-2 | 6.05 |
| CCCCNC(=O)OC1CCS(=O)(=O)C1 (stereo not drawn) | 18.9 |
| Cc1ccc(/C=N\NC(=O)c2cc(OCC(F)(F)F)ccc2OCC(F)(F)F)cc1 | 9.91 |
| COc1ccc(-c2noc(CSc3nc4sc(C)c(C)c4c(=O)n3-c3ccccc3)n2)cc1OC | 0.856 |
| CC(=O)c1cccc(NC(=O)c2cc(=O)[nH]c3ccccc23)c1 | 4.05 |
| COC(=O)c1nc2n(n1)C(c1cccc(Cl)c1)C1=C(CC(C)(C)CC1=O)N2 (stereo not drawn) | 1.16 |
| O=C(Cc1ccccc1)Nc1ccc2oc(=O)ccc2c1 | 14.3 |
| CC(C)(C)NC(=O)C(OC(=O)c1cccs1)c1ccccc1 (stereo not drawn) | 58.8 |
| CCCN1CCN(C(=O)Cn2cccc2C(=O)c2ccccc2)CC1 | -18.1 |
| O=C(O)C1CCCN1S(=O)(=O)c1ccc2c(c1)CCC2 (stereo not drawn) | -48.8 |
| O=C(CCS(=O)(=O)c1ccccc1)NC1CCCC1 | -13.4 |
| COc1ccccc1CC(=O)N1CCN(c2cccc(Cl)c2)CC1 | -1.64 |
| COc1ccccc1-c1cc(C(=O)NCc2ccc(F)cc2)no1 | -5.1 |
| Cc1ccc(N(CC(O)CON=C2c3ccccc3-c3ccccc32)S(C)(=O)=O)cc1 (stereo not drawn) | 15.5 |
| COc1ccc(Nc2nc(C)nc3c2nnn3Cc2ccccc2Cl)c(OC)c1 | 14.8 |
| Cc1sc(NC(=O)Cc2ccc3c(c2)OCO3)nc1-c1ccc2c(c1)CCN2C(=O)c1ccccc1F | -0.586 |
| CC(C)(C)NC(=O)COC(=O)c1c2c(nc3ccccc13)CCC2 | 18.1 |
| COc1ccc(/C=N/n2cnnc2)cc1Br | 5.73 |
| COc1ccc(-c2noc(CN(C(=O)C(C)(C)C)C(C)C)n2)cc1 | 6.61 |
| Cc1c(NC(=O)CCSCCc2ccccn2)cccc1[N+](=O)[O-] | -15 |
| Cn1cc(/C=C(\NC(=O)c2ccccc2Cl)C(=O)NCCCn2ccnc2)c2ccccc21 | 8.3 |
| COc1n[nH]c2nncnc12 | 2.19 |
| CC(NC(=O)C1CCC(C(C)(C)C)CC1)C(c1ccccc1)N1CCOCC1 (stereo not drawn) | -11.1 |
| Cc1cc(C(=O)Nc2c[nH]c(=O)[nH]c2=O)ccc1[N+](=O)[O-] | 23.2 |
